This is one part of the list. One pool of 16,384 single-stranded DNAs met each Rep nickase domain in vitro for 1 h at 37 °C with 3 µM enzyme; only the middle of the 90-letter strands is printed. A value is the log2 ratio of uncut reads to the pool without enzyme; strong cutting gives strongly negative numbers. There is no active / inactive call. Reads are scaled to the total, so uncut sequences can rise above 0 when many others are cut.
Tests used:
Test in all cases: uncleaved DNA left, log2 of reads against the no-enzyme library (log2 ratio); higher = less cleavage (more negative = more Rep cleavage of the k-mer); sequences stand for … in CTCGTCCG…ACCGGAGA
[1] = tested on: T1, Rep nickase domain of Muscovy duck circovirus
T1 sequence (Rep 1-111, printed without the tag): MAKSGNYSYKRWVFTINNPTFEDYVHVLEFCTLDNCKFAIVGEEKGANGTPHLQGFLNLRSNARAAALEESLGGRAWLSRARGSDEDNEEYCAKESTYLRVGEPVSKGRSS
Method: (§1)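 A pool of 90-nt single-stranded DNAs with seven random bases just before the constant AC of the nick site (name = the seven bases) was cut by 3 µM recombinant His6-SUMO-tagged Rep nickase domain (300 nM DNA, 50 mM HEPES pH 8.0, 50 mM NaCl, 1 mM MnCl2, 1 h, 37 °C, three replicates). Uncut DNA was amplified and sequenced.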

[2] = tested on: T2, Rep nickase domain of banana bunchy top virus
T2 sequence (Rep 1-94, printed without the tag): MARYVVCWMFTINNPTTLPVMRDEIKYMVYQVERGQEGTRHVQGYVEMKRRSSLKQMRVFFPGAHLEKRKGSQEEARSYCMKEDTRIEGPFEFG
Method: as §1

[3] = tested on: T3, Rep nickase domain of cabbage leaf curl virus
T3 sequence (Rep 1-116, printed without the tag): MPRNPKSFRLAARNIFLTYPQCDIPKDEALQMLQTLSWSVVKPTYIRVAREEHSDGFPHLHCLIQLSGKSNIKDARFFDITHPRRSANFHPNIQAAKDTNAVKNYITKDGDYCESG
Method: as §1

[4] = tested on: T4, Rep nickase domain of chickpea chlorotic dwarf virus
T4 sequence (Rep 1-124, printed without the tag): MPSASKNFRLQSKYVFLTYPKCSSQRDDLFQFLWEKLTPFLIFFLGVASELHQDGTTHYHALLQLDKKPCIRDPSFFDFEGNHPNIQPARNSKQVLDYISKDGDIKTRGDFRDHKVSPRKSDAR
Method: as §1

[5] = tested on: T5, Rep nickase domain of faba bean necrotic yellows virus
T5 sequence (Rep 1-98, printed without the tag): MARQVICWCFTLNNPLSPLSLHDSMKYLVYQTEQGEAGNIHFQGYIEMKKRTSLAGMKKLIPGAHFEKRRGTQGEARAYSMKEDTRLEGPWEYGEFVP
Method: as §1

[6] = tested on: T6, Rep nickase domain of maize striate mosaic virus
T6 sequence (Rep 1-117, printed without the tag): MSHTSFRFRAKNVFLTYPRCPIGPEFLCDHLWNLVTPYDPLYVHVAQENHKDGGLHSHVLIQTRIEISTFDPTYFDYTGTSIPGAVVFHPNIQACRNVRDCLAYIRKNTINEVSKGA
Method: as §1

[7] = tested on: T7, Rep nickase domain of porcine circovirus 2
T7 sequence (Rep 2-116, printed without the tag): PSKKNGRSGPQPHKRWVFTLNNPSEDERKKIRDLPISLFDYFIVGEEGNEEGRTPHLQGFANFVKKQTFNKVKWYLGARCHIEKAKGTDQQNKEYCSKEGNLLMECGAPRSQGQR
Method: as §1

[8] = tested on: T8, Rep nickase domain of tomato yellow leaf curl virus
T8 sequence (Rep 1-136, printed without the tag): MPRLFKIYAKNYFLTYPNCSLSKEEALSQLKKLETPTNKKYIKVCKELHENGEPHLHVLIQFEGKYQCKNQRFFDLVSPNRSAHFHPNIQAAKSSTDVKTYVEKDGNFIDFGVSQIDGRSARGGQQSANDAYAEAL
Method: as §1

[9] = tested on: T9, Rep nickase domain of wheat dwarf virus
T9 sequence (Rep 1-137, printed without the tag): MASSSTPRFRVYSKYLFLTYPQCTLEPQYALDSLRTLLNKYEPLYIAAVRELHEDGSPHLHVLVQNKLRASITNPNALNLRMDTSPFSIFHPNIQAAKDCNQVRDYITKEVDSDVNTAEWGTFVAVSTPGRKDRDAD
Method: as §1

Sequence | uncleaved DNA left (log2) [1] | uncleaved DNA left (log2) [2] | uncleaved DNA left (log2) [3] | uncleaved DNA left (log2) [4] | uncleaved DNA left (log2) [5] | uncleaved DNA left (log2) [6] | uncleaved DNA left (log2) [7] | uncleaved DNA left (log2) [8] | uncleaved DNA left (log2) [9]
CCAATGA | -0.142 | -0.178 | -0.202 | -0.225 | -0.0279 | -1.13 | 0.0123 | -0.0924 | -0.159
ATTGGCC | 0.0795 | 0.0178 | 0.0321 | 0.483 | -0.0818 | 0.548 | 0.135 | -0.0125 | -0.0586
GTCGGGT | 0.0433 | -0.099 | 0.222 | 0.73 | -0.0213 | 1.5 | -0.0186 | 0.0875 | -0.0126
CGATTAG | 0.166 | 0.2 | -0.171 | -0.093 | 0.217 | -0.739 | 0.33 | 0.19 | 0.173
GCTACCG | -0.0491 | -0.0879 | -0.699 | -0.995 | -0.0297 | -0.955 | 0.0172 | -0.101 | -0.186
GTCATCC | 0.0214 | 0.0753 | 0.24 | 0.887 | -0.0931 | 1.51 | 0.0352 | 0.0786 | 0.0978
GGAGAGA | 0.0706 | 0.195 | 0.983 | 1.94 | 0.125 | 2.16 | 0.324 | 0.0768 | 0.257
CTGTTGT | -0.286 | -0.358 | -0.557 | -0.913 | -0.144 | -1.26 | -1.52 | -0.22 | -0.321
GGCGTCG | 0.0513 | 0.0286 | -0.201 | 0.0744 | -0.0709 | -0.000631 | 0.139 | -0.195 | -0.0763
CAACCAT | -0.192 | -0.0485 | -0.434 | -2.55 | -0.0194 | -0.505 | -1.04 | 0.0824 | 0.0103
CACCCTG | -0.128 | 0.0534 | -0.0475 | -0.0436 | 0.0648 | -0.0292 | -0.24 | 0.00803 | 0.00764
GTAACGA | 0.0778 | 0.0369 | -0.00412 | 0.476 | -0.0473 | 0.603 | 0.0901 | 0.0334 | 0.0638
TTTTCCT | -2.2 | -0.207 | -0.0363 | -2.23 | -0.00343 | -0.546 | -1.4 | -0.0144 | -0.197
GTTTATC | -0.0415 | 0.0459 | 0.34 | 0.903 | -0.0777 | 1.57 | 0.0419 | 0.0688 | 0.0826
GAGGACA | 0.0254 | 0.127 | 0.9 | 2.17 | 0.0669 | 2.27 | 0.259 | 0.0515 | 0.223
GCTTATC | 0.0085 | 0.16 | 0.385 | 1.08 | -0.0534 | 0.697 | 0.14 | 0.0777 | 0.19
CGCAATT | -0.0785 | -0.152 | -0.296 | -1.96 | -0.136 | -0.606 | -1.13 | -0.076 | -0.0776
CCTCCCT | -0.238 | -0.212 | -0.282 | -2.1 | -0.0641 | -0.405 | -0.726 | -0.198 | -0.247
GGACGCT | -0.0796 | -0.0034 | 0.628 | 1.44 | -0.191 | 1.98 | 0.0187 | -0.115 | 0.0399
TTACCGC | -0.0957 | -0.0142 | -0.128 | 0.534 | -0.0151 | 0.363 | -0.542 | 0.0146 | -0.0459
AAATGCC | 0.0358 | 0.025 | -1.62 | -1.89 | 0.0879 | -1.45 | 0.000454 | 0.035 | -0.123
CCTGTTC | 0.00527 | 0.105 | 0.249 | -0.591 | -0.0241 | -0.324 | 0.109 | 0.0576 | -0.069
AAGTTTA | 0.0669 | -0.187 | -0.302 | -2.23 | -0.229 | -0.307 | -3.34 | 0.00765 | -0.18
AGTCTCC | -0.103 | -0.176 | 0.118 | 0.383 | -0.0658 | 1.26 | -0.062 | -0.1 | -0.0878
AATGAAG | 0.0705 | -0.074 | -0.792 | 0.123 | -0.0599 | -0.869 | 0.196 | 0.0219 | -0.0889
AATATGG | 0.0764 | 0.0112 | -0.103 | 0.193 | 0.0585 | -0.714 | 0.102 | -0.0298 | 0.0167
CCTAAAA | -0.146 | -0.0427 | -0.174 | -0.124 | -0.112 | -0.839 | -0.0548 | -0.128 | -0.0661
CGTCAGA | -0.00518 | -0.011 | -0.0823 | 0.00542 | 0.0103 | -0.532 | -0.0367 | -0.0692 | 0.0943
TTCAACA | -0.134 | 0.0131 | -0.00196 | -2.27 | -0.0663 | 0.0545 | -0.0547 | -0.0542 | -0.079
ATCAATA | 0.0905 | 0.183 | 0.00409 | -1.18 | 0.118 | -0.417 | 0.0255 | 0.261 | 0.205
